Source: publication PMC7295996, “Structural basis for chemokine receptor CCR6 activation by the endogenous protein ligand CCL20” (Nature Communications, 2020)

Target: T1, human wild-type CCR6 (S2 to M374) with N-terminal FLAG-tagged BRIL fusion and C-terminal 10x His-tag (human, UniProt P51684 2-374)
T1 construct: C-C chemokine receptor 6 (CCR6), human, wild type, residues S2 to M374; BRIL is fused to the N terminus of the receptor; no density for BRIL or for S2 to Y26 in the map (model built from Y27 to C336); also called chemokine receptor CCR6; not shown: FLAG, N-terminal, kept; BRIL (thermostabilized apocytochrome b562), N-terminal, kept
T1 sequence (looked up): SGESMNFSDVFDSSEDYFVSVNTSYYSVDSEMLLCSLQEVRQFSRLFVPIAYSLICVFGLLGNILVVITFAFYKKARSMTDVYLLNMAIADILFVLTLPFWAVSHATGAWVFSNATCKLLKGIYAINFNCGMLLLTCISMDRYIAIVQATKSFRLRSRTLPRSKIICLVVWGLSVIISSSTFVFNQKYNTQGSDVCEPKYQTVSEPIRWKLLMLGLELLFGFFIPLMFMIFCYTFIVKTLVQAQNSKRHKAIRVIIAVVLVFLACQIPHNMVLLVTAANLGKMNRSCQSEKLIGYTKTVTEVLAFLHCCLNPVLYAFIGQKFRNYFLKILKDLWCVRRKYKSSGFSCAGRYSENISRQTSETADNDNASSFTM
Test: cryo-EM structure; CCR6, G protein heterotrimer and CCL20 mixed 1:1.2:10, 20 °C 2 h; apyrase; scFv16 added 1:1.2 CCR6:scFv16, on ice 1 h; complex purified on M2 anti-FLAG resin by the FLAG tag of CCR6; 20 mM HEPES pH 7.5, 100 mM NaCl, 0.001% LMNG/0.0002% CHS; map at 3.3 Å
Conditions: both partners purified

B1: wild-type CCL20 ([…]) with the native N-terminal alanine (ligand)
chain: not shown
notes: C-C motif chemokine 20 (CCL20), native processed form CCL20 ([…]) that begins with NH2-ASNFD; released by TEV cleavage at ENLYFQ/A. numbers count on: the mature protein; also called WT CCL20; full-length CCL20; source: E. coli Origami 2, as calmodulin fusion, purified (nickel-NTA, TEV digestion, HiTrap S); not shown: His10, N-terminal, cleaved; calmodulin, N-terminal, cleaved
Q: Does B1 bind?
A: binds
